Measured values taken from the supplement of paper PMC11741623.
The list shows a part of the results. Interaction screen of human proteins with wild-type SARS-CoV-2 proteins by split-DHFR complementation in yeast, 1 µg/mL methotrexate. Value = fitness of the pair (three or more lineages) minus that of the viral protein without a human partner, on a scale set by negative (0) and fused positive (1) controls, mean of up to three cultures; higher = more likely to interact. Active = false discovery rate below 0.05 (one-sided t-test) in at least one culture. Nearly all pairs are not hits, and differences among them are mostly noise (correlation between cultures about 0.3); most hits were seen in one culture only. Human sequences are the Swiss-Prot entries looked up by gene name; the clone may be another isoform. NSP2 values were corrected by the authors for a growth advantage. Listed are human proteins with a hit and a random twelfth of the others.

Experiments:
Assay in all cases: yeast fitness gain over the viral ORF with no human partner (scaled fitness); higher = more likely to interact
[1] = target: SARS-CoV-2 E
Method: (§1)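 Split mouse DHFR complementation in pooled diploid yeast: human ORFeome clones carry one fragment and viral ORFs the other; barcoded lineages compete in 1 µg/mL methotrexate and fitness is read by barcode sequencing in up to three cultures.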

[2] = target: SARS-CoV-2 N
Method: as §1

[3] = target: SARS-CoV-2 NSP14
Method: as §1

[4] = target: SARS-CoV-2 NSP5
Method: as §1

[5] = target: SARS-CoV-2 ORF3A
Method: as §1

[6] = target: SARS-CoV-2 M
Method: as §1

[7] = target: SARS-CoV-2 NSP1
Method: as §1

[8] = target: SARS-CoV-2 NSP10
Method: as §1

[9] = target: SARS-CoV-2 NSP12
Method: as §1

[10] = target: SARS-CoV-2 NSP13
Method: as §1

[11] = target: SARS-CoV-2 NSP15
Method: as §1

[12] = target: SARS-CoV-2 NSP16
Method: as §1

[13] = target: SARS-CoV-2 NSP2
Method: as §1

[14] = target: SARS-CoV-2 NSP4
Method: as §1

[15] = target: SARS-CoV-2 NSP6
Method: as §1

[16] = target: SARS-CoV-2 NSP7
Method: as §1

[17] = target: SARS-CoV-2 NSP8
Method: as §1

[18] = target: SARS-CoV-2 NSP9
Method: as §1

[19] = target: SARS-CoV-2 ORF10
Method: as §1

[20] = target: SARS-CoV-2 ORF3B
Method: as §1

[21] = target: SARS-CoV-2 ORF6
Method: as §1

[22] = target: SARS-CoV-2 ORF7A
Method: as §1

[23] = target: SARS-CoV-2 ORF7B
Method: as §1

[24] = target: SARS-CoV-2 ORF8
Method: as §1

[25] = target: SARS-CoV-2 ORF9B
Method: as §1

[26] = target: SARS-CoV-2 ORF9Bwu (the 73-codon ORF)
Method: as §1

[27] = target: SARS-CoV-2 S
Method: as §1

Measured: yeast fitness gain

B1: SH3RF2, Q8TEC5 (protein)
chain: MDDLTLLDLLECPVCFEKLDVTAKVLPCQHTFCKPCLQRVFKAHKELRCPECRTPVFSNIEALPANLLLVRLLDGVRSGQSSGRGGSFRRPGTMTLQDGRKSRTNPRRLQASPFRLVPNVRIHMDGVPRAKALCNYRGQNPGDLRFNKGDIILLRRQLDENWYQGEINGISGNFPASSVEVIKQLPQPPPLCRALYNFDLRGKDKSENQDCLTFLKDDIITVISRVDENWAEGKLGDKVGIFPILFVEPNLTARHLLEKNKGRQSSRTKNLSLVSSSSRGNTSTLRRGPGSRRKVPGQFSITTALNTLNRMVHSPSGRHMVEISTPVLISSSNPSVITQPMEKADVPSSCVGQVSTYHPAPVSPGHSTAVVSLPGSQQHLSANMFVALHSYSAHGPDELDLQKGEGVRVLGKCQDGWLRGVSLVTGRVGIFPNNYVIPIFRKTSSFPDSRSPGLYTTWTLSTSSVSSQGSISEGDPRQSRPFKSVFVPTAIVNPVRSTAGPGTLGQGSLRKGRSSMRKNGSLQRPLQSGIPTLVVGSLRRSPTMVLRPQQFQFYQPQGIPSSPSAVVVEMGSKPALTGEPALTCISRGSEAWIHSAASSLIMEDKEIPIKSEPLPKPPASAPPSILVKPENSRNGIEKQVKTVRFQNYSPPPTKHYTSHPTSGKPEQPATLKASQPEAASLGPEMTVLFAHRSGCHSGQQTDLRRKSALGKATTLVSTASGTQTVFPSK
inactive: [1] -0.0311 | [2] 0.00414 | [3] -0.0271 | [4] 0.0304 | [5] -0.0373

B2: TREML1, Q86YW5 (protein)
chain: MGLTLLLLLLLGLEGQGIVGSLPEVLQAPVGSSILVQCHYRLQDVKAQKVWCRFLPEGCQPLVSSAVDRRAPAGRRTFLTDLGGGLLQVEMVTLQEEDAGEYGCMVDGARGPQILHRVSLNILPPEEEEETHKIGSLAENAFSDPAGSANPLEPSQDEKSIPLIWGAVLLVGLLVAAVVLFAVMAKRKQGNRLGVCGRFLSSRVSGMNPSSVVHHVSDSGPAAELPLDVPHIRLDSPPSFDNTTYTSLPLDSPSGKPSLPAPSSLPPLPPKVLVCSKPVTYATVIFPGGNKGGGTSCGPAQNPPNNQTPSS
inactive: [1] -0.0981 | [6] -0.0105 | [2] 0.0773 | [7] 0.0136 | [8] 0.0235 | [9] 0.00755 | [10] -0.0145 | [11] -0.0579 | [12] 0.022 | [13] -0.108 | [14] -0.173 | [4] -0.0164 | [15] 0.0796 | [16] 0.111 | [17] 0.0507 | [18] -0.112 | [19] 0.0721 | [5] -0.137 | [20] 0.0579 | [21] 0.0277 | [22] 0.000413 | [23] -0.0341 | [24] 0.0264 | [25] -0.000499 | [26] -0.00657 | [27] 0.0642

B3: ERGIC2, Q96RQ1 (protein)
chain: MRRLNRKKTLSLVKELDAFPKVPESYVETSASGGTVSLIAFTTMALLTIMEFSVYQDTWMKYEYEVDKDFSSKLRINIDITVAMKCQYVGADVLDLAETMVASADGLVYEPTVFDLSPQQKEWQRMLQLIQSRLQEEHSLQDVIFKSAFKSTSTALPPREDDSSQSPNACRIHGHLYVNKVAGNFHITVGKAIPHPRGHAHLAALVNHESYNFSHRIDHLSFGELVPAIINPLDGTEKIAIDHNQMFQYFITVVPTKLHTYKISADTHQFSVTERERIINHAAGSHGVSGIFMKYDLSSLMVTVTEEHMPFWQFFVRLCGIVGGIFSTTGMLHGIGKFIVEIICCRFRLGSYKPVNSVPFEDGHTDNHLPLLENNTH
inactive: [1] 0.0266 | [2] -0.0747 | [7] -0.0665 | [3] -0.0256 | [11] -0.00907 | [12] 0.105 | [4] -0.0469 | [15] 0.0209 | [16] -0.00567 | [17] -0.0211 | [19] -0.0601 | [5] 0.0556 | [20] 0.0161 | [23] 0.0584 | [26] -0.0161 | [27] 0.0278

B4: FABP6, P51161 (protein)
chain: MAFTGKFEMESEKNYDEFMKLLGISSDVIEKARNFKIVTEVQQDGQDFTWSQHYSGGHTMTNKFTVGKESNIQTMGGKTFKATVQMEGGKLVVNFPNYHQTSEIVGDKLVEVSTIGGVTYERVSKRLA
active: [13] 0.322
inactive: [1] -0.00506 | [6] 0.0699 | [2] 0.0023 | [7] -0.0066 | [8] 0.049 | [9] 0.0342 | [10] 0.0107 | [3] 0.134 | [11] 0.0448 | [12] 0.0312 | [14] -0.0163 | [4] 0.00767 | [15] 0.0196 | [16] -0.0127 | [17] 0.00582 | [18] 0.0463 | [19] 0.00799 | [5] -0.0431 | [20] -0.00982 | [21] -0.00294 | [22] -0.116 | [23] -0.0979 | [24] 0.01 | [25] 0.0262 | [26] 0.0516 | [27] 0.0699
